Reference: a compilation of properties of binary mixtures (doi:10.1007/s10953-014-0273-1)
The densities may have been worked out from excess volumes.

Assay: xn = mol fraction of the nth substance listed
Conditions: 101 kPa

CCCC[n+]1ccn(C)c1.F[B-](F)(F)F + CC(=O)N(C)C
mass density [kg/m3]
Conditions | x2 = 0 | x2 = 0.1006 | x2 = 0.2004 | x2 = 0.3005 | x2 = 0.4011 | x2 = 0.5002 | x2 = 0.5998 | x2 = 0.6996 | x2 = 0.8002 | x2 = 0.8999
303.15 K | 1198.1 | 1185.4 | 1171.7 | 1155.7 | 1137.7 | 1117.3 | 1093.3 | 1064.9 | 1030.1 | 987.7
313.15 K | 1191 | 1178.2 | 1164.4 | 1148.4 | 1130.2 | – | 1085.6 | 1056.9 | 1021.8 | –
323.15 K | 1184 | 1171.1 | 1157.2 | 1141 | 1122.8 | 1102.1 | – | – | 1013.6 | –
333.15 K | 1177 | 1164.1 | 1150.1 | 1133.8 | 1115.4 | 1094.6 | 1070.1 | 1041 | – | 961.7

CN1CCCC1=O + CCCC[n+]1ccn(C)c1.F[B-](F)(F)F
x1 = 1
Conditions | mass density [kg/m3]
313.15 K | 1014.8
333.15 K | 997

CC#N + CCCC[n+]1ccn(C)c1.F[B-](F)(F)F
x1 = 1
Conditions | mass density [kg/m3]
303.15 K | 771.2
323.15 K | 749.1

CCCC[n+]1ccn(C)c1.F[B-](F)(F)F + CC#N
mass density [kg/m3]
Conditions | x2 = 0 | x2 = 0.1001 | x2 = 0.2034 | x2 = 0.3011 | x2 = 0.4013 | x2 = 0.5 | x2 = 0.6018 | x2 = 0.7 | x2 = 0.7997 | x2 = 0.9001
303.15 K | – | 1186.6 | – | 1157.9 | 1138.8 | 1115.4 | 1084.3 | 1044.5 | 988.6 | 905.5
313.15 K | – | 1179.4 | 1165.9 | 1150.5 | – | 1107.6 | – | 1036.1 | 979.7 | 895.9
323.15 K | – | 1172.3 | 1158.6 | – | 1123.7 | – | 1068.2 | 1027.8 | – | 886.2
333.15 K | 1177 | 1165.2 | 1151.5 | 1135.8 | 1116.2 | 1092.2 | 1060.2 | 1019.4 | 962 | 876.5

CC(=O)N(C)C + CCCC[n+]1ccn(C)c1.F[B-](F)(F)F
x1 = 1
Conditions | mass density [kg/m3]
303.15 K | 931.7
323.15 K | 913.2
333.15 K | 903.8

CO + CCCC[n+]1ccn(C)c1.F[B-](F)(F)F
x1 = 1
Conditions | mass density [kg/m3]
313.15 K | 772.7
323.15 K | 763

CCCC[n+]1ccn(C)c1.F[B-](F)(F)F + CO
mass density [kg/m3]
Conditions | x2 = 0 | x2 = 0.1003 | x2 = 0.2047 | x2 = 0.2997 | x2 = 0.3996 | x2 = 0.504 | x2 = 0.6004 | x2 = 0.6992 | x2 = 0.7997 | x2 = 0.9001
303.15 K | – | 1188.9 | – | – | 1149 | – | – | 1067.8 | 1015.1 | 932.6
313.15 K | – | – | – | 1157.7 | 1141.6 | 1120.4 | 1095.5 | 1059.8 | – | –
323.15 K | 1184 | – | 1163.3 | 1150.4 | – | 1112.8 | – | 1051.8 | 998.5 | 915.1
333.15 K | 1177 | 1167.6 | 1156.2 | 1143.2 | – | 1105.5 | 1080.3 | 1044.2 | 990.8 | 906.3

CCCC[n+]1ccn(C)c1.F[B-](F)(F)F + CN1CCCC1=O
mass density [kg/m3]
Conditions | x2 = 0 | x2 = 0.0999 | x2 = 0.2001 | x2 = 0.3028 | x2 = 0.4 | x2 = 0.4999 | x2 = 0.5998 | x2 = 0.7001 | x2 = 0.8003 | x2 = 0.9001
303.15 K | – | – | – | – | – | 1145.3 | 1129.7 | 1111.3 | 1089 | 1061.5
313.15 K | 1191 | 1182.7 | – | 1162.7 | 1151.2 | – | 1121.9 | 1103.3 | 1080.8 | 1053
323.15 K | – | 1175.6 | 1166.2 | 1155.4 | 1143.8 | 1130.1 | 1114.2 | – | 1072.7 | 1044.6
333.15 K | 1177 | 1168.5 | 1159.1 | 1148.2 | 1136.5 | 1122.6 | 1106.5 | – | 1064.6 | 1036.2
